In the RNAGym collection of RNA variant scans (doi:10.7554/elife.90254) one finds self-cleavage data, which are given here for 56 variants.

B1: LINE1-mini (parent)
chain: GGCAGAGCUCAACACAGCGUGGCAAAGUGGCUGUGGCUAGACUGCC

Read counts are not given, so values of variants with three or more changes are uncertain.

This data set covers variants of B1. Briefly: self-cleavage, relative activity (ratio to wild type); higher = more cleavage; in vitro, sequencing; the parent is a self-cleaving ribozyme.
Regarding GGCAGAGCUCGACACAGCGUGGCAAAGAGGCUGUGGCUAGACUGUC, the self-cleavage came to 0.05. For the variant GGCAGAGCUCGACACAGCGUGGCAAAGAGGCUGUGGCUAGACUGGC, the self-cleavage is 0.01.

With GGCAGAGCUCUCCACAGCAUGGUAAAGUGGCUGUGGCUAGCCUGAC, the self-cleavage was 0.

Turning to GGCAGAGCUCUACGCAGCGUGGCAAAGUCGCUGUGGCUAGACUGCC, the self-cleavage is 0.08.

Consider GGCAGAGCUCUGUACAGCGUGGCAAAGUGGCUGUGGCUAGACUGCC, for which the self-cleavage amounted to 0.01.

Regarding GGCAGAGCUCUCCGCAGCGAGCAAAAGCGGCUGUGGCUAGACUGCC, the self-cleavage was found to be 0.01. On to GGCAGAGCUCUCCAAAGCGUGGCAAAGUGGCUGUGGCUAGACUGCC, for which the self-cleavage is 0.03.

Take GGCAGAGCUCUUCACAGGGUGGCGAAGUGGCUGUGGCUAGACUGCC: the self-cleavage came out at 0.06. Consider GGCAGAGCUCUGCACAGCGUGGCAAAGUGGCUGUGGAUAGACUGCC, for which the self-cleavage came to 0.03. Turning to GGCAGAGCUCGACACAGCGUGGCAAAGCGGCUGUGGCUAGACUGCA, the self-cleavage turned out to be 0. In the case of GGCAGAGCUCUACUCAGCGUGGCAAAGUGGUUGUGGCUAGACUGCC it was 0; in that of GGCAGAGCUCUGCACAGCGUGGCAAACUGGCUGUGGCUAGAAUGCC, 0.

In the case of GGCAGAGCUCUCCACAGCGUGGCAAAGUCGCUGUGGCUAGAGUGCC, the self-cleavage came to 0. For GGCAGAGCUCUACCCAGCGUGGCAACGUGGCCGUGGCAAGACUGCC, the self-cleavage amounted to 0.01. Take GGCAGAGCUCGACACAGCGUGGCAAAGUGGCUGGGUCUAGACUGCC: the self-cleavage was 0.01. For the variant GGCAGAGCUCGACACAGCGUGGCAAAGUGGCUGCGUCUAGACUGCC, the self-cleavage is 0.

For the variant GGCAGAGCUCGACACAGCGUGGCAAAGUGGCUGGGGCUAUACUGCC, the self-cleavage came to 0. In the case of GGCAGAGCUCGACACAGCGAGGCAAAGUGGCUGUCGCUAGACUGCC it was 0.01; in that of GGCAGAGCUCUCCACAUCGUGGCAAAGUGGCUGUGGCUACACUGCC, 0.01. Take GGCAGAGCUCGACACAGCGUGGCAAAGUGGCCGUGGUUAGACUGCC: the self-cleavage was 0. For the variant GGCAGAGCUCGACACAGCGUGGCAAAGUGGCCGUGGAUAGACUGCC, the self-cleavage came to 0.01.

In the case of GGCAGAGCUCUCCACAGCGUGGCAAAGUGGCUGUGGGUAGACUGCC, the self-cleavage was 0.01. GGCAGAGCUCUGCACCGCGAGGCAAAGUGGCUGUGGCUAGACUGCC: the self-cleavage was 0.04.

Take GGCAGAGCUCUACCCAGCAUGGCACAGUGGCUGUGGCUAGACUGCC: the self-cleavage turned out to be 0.01.

With GGCAGAGCUCUGAACAGCAUGGCAAAGUAGCUGUGAUUAGACUGCC, the self-cleavage came to 0.02. For the variant GGCAGAGCUCGACACAGCGUGGCAAAGUGGCAGUGUCUAGACUGCC, the self-cleavage was found to be 0.01. To GGCAGAGCUCUGCACAGCGUGGCAAAGUUGCUGUGGCUAGACUGCC belongs 0; to GGCAGAGCUCUACGCAGCGGGGCAAAGUUUCAGUGGCUAGACGGCC, 0; to GGCAGAGCUCUCCACAGCGUGGCAAAGUGGCUGUGGCUAGACUGGC, 0. Turning to GGCAGAGCUCGACACAGCGAGGCAAAGUGGCUUUGGCUAGACUGAA, the self-cleavage was 0.01. In the case of GGCAGAGCUCGACACAGCGCGUCAAAGUUGCUGUGGCUAGACUGCC, the self-cleavage was determined as 0.02. Take GGCAGAGCUCGACACAGCGUGGCAAAGCGGCUCUGGCUAGACUGGC: the self-cleavage is 0.02.

GGCAGAGCUCGACACAGCGCGGCAAAGUGCCUGUGGCUCGACUGCC: the self-cleavage turned out to be 0.01. Take GGCAGAGCUCUACCCAGCGUUGCAAAGUGGCUGUGGCUAGACUGCC: the self-cleavage was 0.02. In the case of GGCAGAGCUCUACACGGGGUGGCAAAGUGGCUGUGGCUAGACUGCC it was 0; in that of GGCAGAGCUCGACACAGCGUGGCAAAGCGGCUGUGGCUAGACUUCC, 0.02.

As to GGCAGAGCUCUGCACAGCGUGGCAAAGUGGCUAUGGCUAGACUGCA, the self-cleavage came out at 0.02. To GGCAGAGCUCUCCCAAGCGUGGCAAAGUGUCUGUGGCUAGACUGCC belongs 0.02; to GGCAGAGCUCUACUCAGGGUGGCAAAGUGGCUGUGGCUAUACUGCC, 0.02; to GGCAGAGCUCUUCACAGCGUGGCAUAGUGGAUGUGGCUAGACUGCC, 0.04. As to GGCAGAGCUCGACACAGCGAGGCAAUGUGGCUGUGGCUAGACUGCC, the self-cleavage came to 0.02.

Turning to GGCAGAGCUCGACACAGCGCGACAAAGAGGCUGUGGCUAGACUGCC, the self-cleavage turned out to be 0. Consider GGCAGAGCUCUACCCAGCGUGGCAAAGUGGCUCUGGCUAGACUGCC, for which the self-cleavage was 0.02.

For the variant GGCAGAGCUCGACACAGCGUGGCAAAGUGGCGGUGGCUACCCUGCC, the self-cleavage is 0. Turning to GGCAGAGCUCUACACCGCGUGGCAAAGUAGCUGUGGCUAGACUGCC, the self-cleavage was determined as 0.03. With GGCAGAGCUCUACUCAGCGUGGCAAAGUGGCCGUGGCUAGACUACC, the self-cleavage stood at 0.02.

As to GGCAGAGCUCGACACAGCGUGGCAAAGCGGCUGUGGCUAGACCGCC, the self-cleavage was 0.01. Turning to GGCAGAGCUCUACUCAGCGUGGUAAAGUGGCUGUGGCUAGACUGCC, the self-cleavage worked out at 0.03.

Take GGCAGAGCUCGACACAGCGCGGCAAAGUUGUUGUGGCUAGACUGCC: the self-cleavage is 0.02. As for GGCAGAGCUCUGCACACCGUGGCAAAGUGGCUGUGGCUAGACUGCC, the self-cleavage was 0. As for GGCAGAGCUCUUCACAGCGUGGCAAAGUGGCUUUGGCUAGACUGCC, the self-cleavage turned out to be 0.03. Turning to GGCAGAGCUCGACACAGCGUGGCAAAGUGGCUGUGGCUAGACCGAC, the self-cleavage turned out to be 0. GGCAGAGCUCGACACAGCGGGGCAAAUUUGCUUUGGCUAGACUGCC: the self-cleavage was 0.01. For GGCAGAGCUCGACACAGCGUGGCAAAGGGACUGUGGCUAGACUGCC, the self-cleavage turned out to be 0.05. In the case of GGCAGAGCUCGACACAGCGUGGCAAAGGGGAUGUGGCUAGACUGCC, the self-cleavage turned out to be 0.13. To GGCAGAGCUCUACGCCGCGUGGCAAAGUGGCUGAGGCUAGACUGCC belongs 0.02.
